Reference: the supplement of paper PMC7726561
Whole data set: some 1,400 sequences, median “thermal melting temperature (Tm) of peptide-HLA complex” near 60, cut for the lowest 2% near 45. Some of the results follow.

B1: unnamed (peptide)
chain: TPQQGAQTSL
B2: unnamed (peptide)
chain: APINKAGSFL
B3: unnamed (peptide)
chain: IPFWRNTAV
B4: unnamed (peptide)
chain: APSSRWGGTSL
B5: unnamed (peptide)
chain: HPRVPSLTTV
B6: unnamed (peptide)
chain: APTPARPVL
B7: unnamed (peptide)
chain: APEEHPVL
B8: unnamed (peptide)
chain: DPMKARVVL
B9: unnamed (peptide)
chain: IPRYIVSQL
B10: unnamed (peptide)
chain: APRDAYWIA
B11: unnamed (peptide)
chain: RPAPLPAAVV
B12: unnamed (peptide)
chain: SPRDITTIKL
B13: unnamed (peptide)
chain: SPAKPVLIF
B14: unnamed (peptide)
chain: RPAAPGQTPL
B15: unnamed (peptide)
chain: WPASQRDVL
B16: unnamed (peptide)
chain: NPREWTPEI
B17: unnamed (peptide)
chain: APARASVIL
B18: unnamed (peptide)
chain: QPKLPITVL
B19: unnamed (peptide)
chain: APTQEKIFAVL
B20: unnamed (peptide)
chain: SPHSAAYVL
B21: unnamed (peptide)
chain: APAPKPEAA
B22: unnamed (peptide)
chain: LPRQPPMSL
B23: unnamed (peptide)
chain: LVRDVVSSL
B24: unnamed (peptide)
chain: FPRSQISVL
B25: unnamed (peptide)
chain: YPRVPVGGEL
B26: unnamed (peptide)
chain: APRPTIINA
B27: unnamed (peptide)
chain: RPQAPATVGL
B28: unnamed (peptide)
chain: SPTSLKITL
B29: unnamed (peptide)
chain: KPFLGIGL
B30: unnamed (peptide)
chain: APRAVFPSI
B31: unnamed (peptide)
chain: SPQAPTLQV
B32: unnamed (peptide)
chain: KPRNVQILNM
B33: unnamed (peptide)
chain: RPLGTRLGF
B34: unnamed (peptide)
chain: RPSPWRPLVL
B35: unnamed (peptide)
chain: SPSWRLTGF
B36: unnamed (peptide)
chain: IPASNRLLL
B37: unnamed (peptide)
chain: GPRPVLGGSFL
B38: unnamed (peptide)
chain: EPRHGGLTL
B39: unnamed (peptide)
chain: QLRLPTDTL
B40: unnamed (peptide)
chain: APSGGKVTVL
B41: unnamed (peptide)
chain: APRWVLSQVQL
B42: unnamed (peptide)
chain: RPVAPSGTAL
B43: unnamed (peptide)
chain: TPRSTVGVAVL
B44: unnamed (peptide)
chain: TPAPVPTSL
B45: unnamed (peptide)
chain: APYQFLTAF
B46: unnamed (peptide)
chain: SPGPEKMAL
B47: unnamed (peptide)
chain: QPARPGLLL
B48: unnamed (peptide)
chain: KPYPIAEVEQL
B49: unnamed (peptide)
chain: VPNAGRGLVRL
B50: unnamed (peptide)
chain: SPVVRVAV
B51: unnamed (peptide)
chain: APRTLLQVL
B52: unnamed (peptide)
chain: RPILTIITL
B53: unnamed (peptide)
chain: TPRGGVGSVAL
B54: unnamed (peptide)
chain: APREGISQEAL
B55: unnamed (peptide)
chain: APAQPQPQL
B56: unnamed (peptide)
chain: TPMPKDVRQSL

Each sequence was assayed against HLA-B*07:02 (assay: thermal melting temperature (Tm) of peptide-HLA complex; higher = more thermostable pHLA complex). Details: C1R-B*07:02.
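Note: cell lysates heated 10 min at 37–73 °C, remaining pHLA pulled down with pan-class I antibody, peptides quantified by DIA-MS versus 37 °C, Tm where half the complex is lost.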

Row | Sequence | thermal melting temperature [°C]
1 | B1 | 40.5
2 | B2 | 61.8
3 | B3 | 62.3
4 | B4 | 52.9
5 | B5 | 58.8
6 | B6 | 59.7
7 | B7 | 56.1
8 | B8 | 49.3
9 | B9 | 63.3
10 | B10 | 58.8
11 | B11 | 55.9
12 | B12 | 60
13 | B13 | 60.1
14 | B14 | 59
15 | B15 | 60.9
16 | B16 | 57.8
17 | B17 | 58.5
18 | B18 | 60.8
19 | B19 | 61.2

Row | Sequence | thermal melting temperature [°C]
20 | B20 | 55.4
21 | B21 | 62.6
22 | B22 | 66.1
23 | B23 | 62.3
24 | B24 | 62.1
25 | B25 | 57.4
26 | B26 | 56.7
27 | B27 | 58.2
28 | B28 | 58
29 | B29 | 62.1
30 | B30 | 62
31 | B31 | 63.1
32 | B32 | 54.8
33 | B33 | 53.6
34 | B34 | 57.1
35 | B35 | 60.9
36 | B36 | 61.8
37 | B37 | 62.9
38 | B38 | 55.8

Row | Sequence | thermal melting temperature [°C]
39 | B39 | 60.5
40 | B40 | 59.8
41 | B41 | 61.6
42 | B42 | 58.9
43 | B43 | 59.5
44 | B44 | 63.2
45 | B45 | 59.9
46 | B46 | 59.1
47 | B47 | 58.3
48 | B48 | 42.7
49 | B49 | 61.5
50 | B50 | 57.1
51 | B51 | 63
52 | B52 | 62.3
53 | B53 | 59.3
54 | B54 | 59.4
55 | B55 | 60.8
56 | B56 | 44.5
